Some of the results follow. The full chains were built here from the parent and the listed change. Inactive controls read about 0.05.
B1: TEV protease; numbered along this chain (parent)
chain: MGESLFKGPRDYNPISSSICHLTNESDGHTTSLYGIGFGPFIITNKHLFRRNNGTLVVQSLHGVFKVKDTTTLQQHLVDGRDMIIIRMPKDFPPFPQKLKFREPQREERICLVTTNFQTKSMSSMVSDTSCTFPSGDGIFWKHWIQTKDGQCGSPLVSTRDGFIVGIHSASNFTNTNNYFTSVPKNFMELLTNQEAQQWVSGWRLNADSVLWGGHKVFMVKPEEPFQPVKEATQL

Variants of: B1
Assay: raw area under fraction-flipped curve 0-4 h after induction (AUC4h, not background-subtracted), DNA-recorder readout of cleavage of the substrate (dimensionless); higher = more cleavage of the substrate by the protease variant
Settings: temperature: 34 °C; time window: 0-4 h after rhamnose induction
Protocol: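 In vivo DNA recorder in E. coli TOP10(DE3) ΔrhaA at 34 °C. Each TEVp single-site mutant (parent TEVp 0) is paired with a single-site variant of the 7-mer TEVs (canonical ENLYFQ|S). The substrate sits between flexible linkers in a Bxb1-sfGFP-TEVs-SsrA fusion, so cleavage stabilises Bxb1 and speeds flipping of a recombination array, read by NGS. The value is the raw area under the fraction-flipped curve over 0-4 h after rhamnose induction (AUC4h), with ≥20 reads per time point. It is not background-subtracted; inactive controls average about 0.047.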
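Note: Bxb1 expression induced with 0.2% (w/v) L-rhamnose at OD600 near 0.5, cultures sampled hourly, flipped fraction per protease–substrate barcode pair counted by paired-end Illumina sequencing.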

Row | Variant | area with substrate ENLYCQS | area with substrate ENLYEQS | area with substrate ENLYGQS | area with substrate ENLYHQS | area with substrate ENLYIQS | area with substrate ENLYKQS | area with substrate ENLYMQS | area with substrate ENLYNQS | area with substrate ENLYPQS | area with substrate ENLYRQS | area with substrate ENLYSQS | area with substrate ENLYTQS | area with substrate ENLYVQS | area with substrate ENLYWQS | area with substrate ENLYYQS | area with substrate ENLYDQS | area with substrate ENLYLQS | area with substrate ENLYQQS | area with substrate ENLYAQS
1 | P89S | 0.0865 | 0.0577 | 0.0527 | 0.0618 | 0.103 | 0.0893 | 0.0738 | 0.0581 | 0.0732 | 0.0658 | 0.0664 | 0.0691 | 0.0983 | 0.0715 | 0.0614 |  |  |  | 
2 | S154H | 0.0789 | 0.0732 | 0.0605 | 0.0646 |  | 0.0479 | 0.0783 | 0.071 | 0.0581 | 0.0568 |  | 0.0763 | 0.0948 | 0.0716 | 0.0676 | 0.0613 | 0.0497 | 0.0493 | 
3 | N53M | 0.0533 | 0.076 |  | 0.0664 | 0.118 | 0.0558 | 0.0672 | 0.0625 |  | 0.061 | 0.0375 |  |  | 0.057 |  | 0.0581 | 0.0816 | 0.0565 | 0.0801
4 | N53V |  | 0.0532 | 0.0655 | 0.0567 | 0.101 | 0.0521 | 0.0663 | 0.0693 | 0.0639 | 0.0672 | 0.0815 |  | 0.0935 |  | 0.0383 | 0.061 |  | 0.0738 | 0.0636
5 | E108A |  | 0.0598 | 0.0509 | 0.0554 | 0.0763 | 0.02 | 0.05 | 0.0503 |  |  | 0.0552 | 0.0369 | 0.0428 | 0.0195 |  |  |  |  | 0.0713
6 | K46C | 0.112 | 0.0546 |  | 0.0689 | 0.133 | 0.0631 | 0.0731 | 0.0717 | 0.0534 | 0.0594 | 0.0736 | 0.0784 | 0.122 | 0.0736 | 0.0532 | 0.0718 |  | 0.0575 | 
7 | K46M | 0.0914 | 0.0663 | 0.0616 | 0.063 | 0.086 | 0.0577 |  | 0.0552 | 0.0638 | 0.0613 |  | 0.0737 | 0.11 |  | 0.0519 | 0.059 | 0.0766 | 0.0132 | 0.0754
8 | I42A | 0.0577 | 0.055 | 0.0728 | 0.0519 | 0.0703 | 0.0476 |  |  | 0.0542 | 0.0481 | 0.0487 |  | 0.0737 | 0.0593 |  | 0.0391 |  |  | 0.0523
9 | C152P | 0.057 | 0.0607 |  | 0.0506 |  | 0.0643 | 0.0573 | 0.0555 | 0.0579 | 0.0587 | 0.0586 |  | 0.0553 | 0.045 |  | 0.0673 | 0.054 |  | 0.0586
10 | L190M | 0.0839 | 0.0638 | 0.0618 | 0.0728 |  | 0.0535 | 0.0845 | 0.0938 | 0.086 |  | 0.0681 | 0.0686 | 0.106 | 0.0931 | 0.0614 | 0.0551 |  |  | 0.0825
11 | K90W | 0.0885 | 0.0997 |  | 0.0701 | 0.108 |  | 0.0782 | 0.0808 | 0.0618 |  | 0.0767 | 0.0804 | 0.13 | 0.0816 |  | 0.0685 |  |  | 
12 | E25G | 0.0724 | 0.0638 |  | 0.0563 | 0.103 |  | 0.0725 | 0.0655 | 0.0616 | 0.063 | 0.0595 | 0.0691 | 0.0834 | 0.0667 | 0.0496 | 0.051 | 0.0714 | 0.0714 | 

Source: the supplement of paper PMC12217912
